Some of the results follow. Sequences were assembled here from the parent chain. Inactive controls read about 0.05.

The source of these data is the supplement of paper PMC12217912.

B1: TEV protease; numbered along this chain (parent)
chain: MGESLFKGPRDYNPISSSICHLTNESDGHTTSLYGIGFGPFIITNKHLFRRNNGTLVVQSLHGVFKVKDTTTLQQHLVDGRDMIIIRMPKDFPPFPQKLKFREPQREERICLVTTNFQTKSMSSMVSDTSCTFPSGDGIFWKHWIQTKDGQCGSPLVSTRDGFIVGIHSASNFTNTNNYFTSVPKNFMELLTNQEAQQWVSGWRLNADSVLWGGHKVFMVKPEEPFQPVKEATQL

Variants of B1 are the subject of this experiment. The experiment can be described thus: raw area under fraction-flipped curve 0-4 h after induction (AUC4h, not background-subtracted), DNA-recorder readout of cleavage of the substrate (dimensionless); higher = more cleavage of the substrate by the protease variant. Particulars: temperature: 34 °C; time window: 0-4 h after rhamnose induction. How it is done:
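In vivo DNA recorder in E. coli TOP10(DE3) ΔrhaA at 34 °C. Each TEVp single-site mutant (parent TEVp 0) is paired with a single-site variant of the 7-mer TEVs (canonical ENLYFQ|S). The substrate sits between flexible linkers in a Bxb1-sfGFP-TEVs-SsrA fusion, so cleavage stabilises Bxb1 and speeds flipping of a recombination array, read by NGS. The value is the raw area under the fraction-flipped curve over 0-4 h after rhamnose induction (AUC4h), with ≥20 reads per time point. It is not background-subtracted; inactive controls average about 0.047.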
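Also: Bxb1 expression induced with 0.2% (w/v) L-rhamnose at OD600 near 0.5, cultures sampled hourly, flipped fraction per protease–substrate barcode pair counted by paired-end Illumina sequencing.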

As for MGESLFKGPRDYNPISSSICHLTNHSDGHTTSLYGIGFGPFIITNKHLFRRNNGTLVVQSLHGVFKVKDTTTLQQHLVDGRDMIIIRMPKDFPPFPQKLKFREPQREERICLVTTNFQTKSMSSMVSDTSCTFPSGDGIFWKHWIQTKDGQCGSPLVSTRDGFIVGIHSASNFTNTNNYFTSVPKNFMELLTNQEAQQWVSGWRLNADSVLWGGHKVFMVKPEEPFQPVKEATQL [E25H], the “area with substrate ENLYAQS” value was 0.0561, the “area with substrate ENLYCQS” value stood at 0.111, the “area with substrate ENLYEQS” value came out at 0.0633 and the “area with substrate ENLYHQS” value is 0.065. Moreover, the “area with substrate ENLYIQS” value worked out at 0.125, the “area with substrate ENLYMQS” value turned out to be 0.0625, the “area with substrate ENLYNQS” value stood at 0.0627 and the “area with substrate ENLYPQS” value came to 0.0527. Also, the “area with substrate ENLYRQS” value amounted to 0.068, the “area with substrate ENLYSQS” value is 0.0639 and the “area with substrate ENLYWQS” value was determined as 0.0645.
Consider MGEQLFKGPRDYNPISSSICHLTNESDGHTTSLYGIGFGPFIITNKHLFRRNNGTLVVQSLHGVFKVKDTTTLQQHLVDGRDMIIIRMPKDFPPFPQKLKFREPQREERICLVTTNFQTKSMSSMVSDTSCTFPSGDGIFWKHWIQTKDGQCGSPLVSTRDGFIVGIHSASNFTNTNNYFTSVPKNFMELLTNQEAQQWVSGWRLNADSVLWGGHKVFMVKPEEPFQPVKEATQL [S4Q], for which the “area with substrate ENLYAQS” value came out at 0.101, the “area with substrate ENLYCQS” value turned out to be 0.0855, the “area with substrate ENLYDQS” value is 0.0626 and the “area with substrate ENLYEQS” value amounted to 0.0692. The “area with substrate ENLYGQS” value amounted to 0.0721, the “area with substrate ENLYHQS” value stood at 0.0685, the “area with substrate ENLYKQS” value is 0.0667 and the “area with substrate ENLYMQS” value came to 0.105. Further, the “area with substrate ENLYNQS” value came out at 0.0706, the “area with substrate ENLYPQS” value came out at 0.0524, the “area with substrate ENLYQQS” value came out at 0.0405 and the “area with substrate ENLYRQS” value turned out to be 0.0711. The “area with substrate ENLYTQS” value stood at 0.101, the “area with substrate ENLYVQS” value was found to be 0.133 and the “area with substrate ENLYYQS” value was found to be 0.0687.
Regarding MGESLFKGPRDYNPISTSICHLTNESDGHTTSLYGIGFGPFIITNKHLFRRNNGTLVVQSLHGVFKVKDTTTLQQHLVDGRDMIIIRMPKDFPPFPQKLKFREPQREERICLVTTNFQTKSMSSMVSDTSCTFPSGDGIFWKHWIQTKDGQCGSPLVSTRDGFIVGIHSASNFTNTNNYFTSVPKNFMELLTNQEAQQWVSGWRLNADSVLWGGHKVFMVKPEEPFQPVKEATQL [S17T], the “area with substrate ENLYAQS” value worked out at 0.0815, the “area with substrate ENLYDQS” value was 0.0576, the “area with substrate ENLYEQS” value worked out at 0.0802 and the “area with substrate ENLYGQS” value came to 0.0507. Also, the “area with substrate ENLYHQS” value is 0.0677, the “area with substrate ENLYIQS” value was 0.132, the “area with substrate ENLYKQS” value is 0.0578 and the “area with substrate ENLYLQS” value turned out to be 0.0804. Also, the “area with substrate ENLYMQS” value worked out at 0.0874, the “area with substrate ENLYNQS” value is 0.0672, the “area with substrate ENLYQQS” value was 0.0684 and the “area with substrate ENLYRQS” value was found to be 0.0599. In addition, the “area with substrate ENLYSQS” value amounted to 0.0659, the “area with substrate ENLYTQS” value amounted to 0.0827 and the “area with substrate ENLYYQS” value amounted to 0.0713.
On to MGESVFKGPRDYNPISSSICHLTNESDGHTTSLYGIGFGPFIITNKHLFRRNNGTLVVQSLHGVFKVKDTTTLQQHLVDGRDMIIIRMPKDFPPFPQKLKFREPQREERICLVTTNFQTKSMSSMVSDTSCTFPSGDGIFWKHWIQTKDGQCGSPLVSTRDGFIVGIHSASNFTNTNNYFTSVPKNFMELLTNQEAQQWVSGWRLNADSVLWGGHKVFMVKPEEPFQPVKEATQL [L5V], for which the “area with substrate ENLYAQS” value turned out to be 0.086, the “area with substrate ENLYEQS” value is 0.0666, the “area with substrate ENLYGQS” value is 0.044 and the “area with substrate ENLYHQS” value stood at 0.067. The “area with substrate ENLYKQS” value worked out at 0.044, the “area with substrate ENLYLQS” value was determined as 0.0897, the “area with substrate ENLYMQS” value was found to be 0.103 and the “area with substrate ENLYNQS” value came out at 0.0633. The “area with substrate ENLYQQS” value was found to be 0.0746, the “area with substrate ENLYRQS” value is 0.0626, the “area with substrate ENLYVQS” value worked out at 0.119 and the “area with substrate ENLYWQS” value came out at 0.0889. The “area with substrate ENLYYQS” value came to 0.0711.
On to MGESLFKGPRDYNPISSSACHLTNESDGHTTSLYGIGFGPFIITNKHLFRRNNGTLVVQSLHGVFKVKDTTTLQQHLVDGRDMIIIRMPKDFPPFPQKLKFREPQREERICLVTTNFQTKSMSSMVSDTSCTFPSGDGIFWKHWIQTKDGQCGSPLVSTRDGFIVGIHSASNFTNTNNYFTSVPKNFMELLTNQEAQQWVSGWRLNADSVLWGGHKVFMVKPEEPFQPVKEATQL [I19A], for which the “area with substrate ENLYAQS” value is 0.0639, the “area with substrate ENLYCQS” value was determined as 0.0804, the “area with substrate ENLYEQS” value was found to be 0.0523 and the “area with substrate ENLYHQS” value came to 0.0637. Also, the “area with substrate ENLYKQS” value amounted to 0.067, the “area with substrate ENLYNQS” value came to 0.0769, the “area with substrate ENLYPQS” value turned out to be 0.0628 and the “area with substrate ENLYQQS” value is 0.0634. For the same variant, the “area with substrate ENLYRQS” value came to 0.0684, the “area with substrate ENLYTQS” value stood at 0.0929, the “area with substrate ENLYVQS” value came out at 0.0587 and the “area with substrate ENLYWQS” value amounted to 0.0864.
MGESLFKGPRDYNPISSSICHLTNEYDGHTTSLYGIGFGPFIITNKHLFRRNNGTLVVQSLHGVFKVKDTTTLQQHLVDGRDMIIIRMPKDFPPFPQKLKFREPQREERICLVTTNFQTKSMSSMVSDTSCTFPSGDGIFWKHWIQTKDGQCGSPLVSTRDGFIVGIHSASNFTNTNNYFTSVPKNFMELLTNQEAQQWVSGWRLNADSVLWGGHKVFMVKPEEPFQPVKEATQL [S26Y]: the “area with substrate ENLYAQS” value was found to be 0.0548, the “area with substrate ENLYCQS” value came out at 0.0643, the “area with substrate ENLYDQS” value came out at 0.0645 and the “area with substrate ENLYEQS” value came to 0.112. Moreover, the “area with substrate ENLYGQS” value turned out to be 0.0546, the “area with substrate ENLYIQS” value worked out at 0.0626, the “area with substrate ENLYKQS” value came to 0.0325 and the “area with substrate ENLYLQS” value was found to be 0.061. For the same variant, the “area with substrate ENLYNQS” value was 0.065, the “area with substrate ENLYPQS” value is 0.0666, the “area with substrate ENLYQQS” value was found to be 0.057 and the “area with substrate ENLYRQS” value came to 0.0639. Moreover, the “area with substrate ENLYSQS” value was found to be 0.071, the “area with substrate ENLYTQS” value worked out at 0.0545 and the “area with substrate ENLYWQS” value came out at 0.0642.
For the variant MGESLFKGPRDYNPISSSICHQTNESDGHTTSLYGIGFGPFIITNKHLFRRNNGTLVVQSLHGVFKVKDTTTLQQHLVDGRDMIIIRMPKDFPPFPQKLKFREPQREERICLVTTNFQTKSMSSMVSDTSCTFPSGDGIFWKHWIQTKDGQCGSPLVSTRDGFIVGIHSASNFTNTNNYFTSVPKNFMELLTNQEAQQWVSGWRLNADSVLWGGHKVFMVKPEEPFQPVKEATQL [L22Q], the “area with substrate ENLYAQS” value is 0.0461, the “area with substrate ENLYDQS” value stood at 0.049, the “area with substrate ENLYEQS” value is 0.0515 and the “area with substrate ENLYGQS” value was 0.0421. Further, the “area with substrate ENLYIQS” value amounted to 0.0434, the “area with substrate ENLYKQS” value was 0.0645, the “area with substrate ENLYLQS” value was 0.0242 and the “area with substrate ENLYMQS” value came out at 0.0384. Also, the “area with substrate ENLYNQS” value is 0.0427, the “area with substrate ENLYPQS” value is 0.0485, the “area with substrate ENLYQQS” value came out at 0.0537 and the “area with substrate ENLYRQS” value turned out to be 0.0375. Besides, the “area with substrate ENLYSQS” value stood at 0.0492, the “area with substrate ENLYVQS” value was 0.0586 and the “area with substrate ENLYWQS” value was determined as 0.0457.
As for MGESLFKGPRDYNPTSSSICHLTNESDGHTTSLYGIGFGPFIITNKHLFRRNNGTLVVQSLHGVFKVKDTTTLQQHLVDGRDMIIIRMPKDFPPFPQKLKFREPQREERICLVTTNFQTKSMSSMVSDTSCTFPSGDGIFWKHWIQTKDGQCGSPLVSTRDGFIVGIHSASNFTNTNNYFTSVPKNFMELLTNQEAQQWVSGWRLNADSVLWGGHKVFMVKPEEPFQPVKEATQL [I15T], the “area with substrate ENLYAQS” value was 0.074, the “area with substrate ENLYCQS” value worked out at 0.112, the “area with substrate ENLYDQS” value stood at 0.0516 and the “area with substrate ENLYEQS” value is 0.056. Further, the “area with substrate ENLYGQS” value amounted to 0.069, the “area with substrate ENLYHQS” value was found to be 0.0561, the “area with substrate ENLYIQS” value stood at 0.115 and the “area with substrate ENLYKQS” value amounted to 0.0636. Further, the “area with substrate ENLYMQS” value turned out to be 0.0927, the “area with substrate ENLYNQS” value was found to be 0.0515, the “area with substrate ENLYPQS” value is 0.0596 and the “area with substrate ENLYQQS” value turned out to be 0.0543. For the same variant, the “area with substrate ENLYSQS” value amounted to 0.0744, the “area with substrate ENLYTQS” value was 0.0649, the “area with substrate ENLYVQS” value stood at 0.118 and the “area with substrate ENLYWQS” value amounted to 0.0627. In addition, the “area with substrate ENLYYQS” value was determined as 0.0556.
As to MGESLFLGPRDYNPISSSICHLTNESDGHTTSLYGIGFGPFIITNKHLFRRNNGTLVVQSLHGVFKVKDTTTLQQHLVDGRDMIIIRMPKDFPPFPQKLKFREPQREERICLVTTNFQTKSMSSMVSDTSCTFPSGDGIFWKHWIQTKDGQCGSPLVSTRDGFIVGIHSASNFTNTNNYFTSVPKNFMELLTNQEAQQWVSGWRLNADSVLWGGHKVFMVKPEEPFQPVKEATQL [K7L], the “area with substrate ENLYAQS” value was 0.0875, the “area with substrate ENLYEQS” value is 0.0644, the “area with substrate ENLYGQS” value came to 0.0635 and the “area with substrate ENLYKQS” value was found to be 0.0709. Moreover, the “area with substrate ENLYLQS” value was 0.101, the “area with substrate ENLYNQS” value amounted to 0.0628, the “area with substrate ENLYPQS” value came to 0.0572 and the “area with substrate ENLYRQS” value was 0.0609. The “area with substrate ENLYTQS” value stood at 0.0632 and the “area with substrate ENLYWQS” value was found to be 0.0663.
